Laboratory results taken from US20260092110A1.

B1: MOG303 scFv-hG4PE(R409K) antibody (Fc fusion)
scFv-Fc: [about 100 residues omitted]GGYDILTGYFFDYWGQGTTVTVSSGGGGSGGRASGGGGSAIQMTQSPSSLSASVGDRVTITCRASQGISSALAWYQQKPGKAPKLLIYDASSLESGVPSRFSGSGSGTDFTLTISSLQPEDFATYYCQQFNSYPFTFGPGTRLEIK[human IgG4 Fc with S228P L235E R409K (EU numbers) omitted]
B2: MOG456 scFv-hG4PE(R409K) antibody (Fc fusion)
chain: EVQLVESGGGLVKPGGSLRLSCAASGFTFSSYSMHWVRQAPGKGLEWVSSIGSRSRYIYYADSVKGRFTISRDNAKNSLYLQMNSLRAEDTAVYYCAKGYYDILTGSLFDYWGQGTLVTVSSGGGGSGGRASGGGGSDIVMTQSPSSLSASVGDRVTITCRASQGISSALAWYQQKPGKAPKLLIYDASSLESGVPSRFSGSGSGTDFTLTISSLQPEDFATYYCQQFNSYPWTFGQGTKVEIK[human IgG4 Fc with S228P L235E R409K (EU numbers) omitted]
B3: MOG329 scFv-hG4PE(R409K) antibody (Fc fusion)
chain: QVQLVESGGGLVQPGGSLRLSCAASGFAFRNYAMNWVRQAPGKGLEWVSAISGSGGSTYYADSVKGRFTISRDNSKNTLYLQMNSLRAEDTAVYYCARDYGGISPFDYWGQGTLVTVSSGGGGSGGRASGGGGSDIQLTQSPSSLSASVGDRVTITCRASQGISSALAWYQQKPGKAPKLLIYDASSLESGVPSRFSGSGSGTDFTLTISSLQPEDFATYYCQQFNSYPHTFGQGTKVDIK[human IgG4 Fc with S228P L235E R409K (EU numbers) omitted]
B4: MOG446 scFv-hG4PE(R409K) antibody (Fc fusion)
chain: QVQLVESGGGVVRPGGSLRLSCAASGFTFDDYGMSWVRQAPGKGLEWVSNINWNGDSTGYVDSVKGRFTISRDNAKNSLYLQMNSLRAEDTALYYCARARTYYYVSGRYYFDYWGQGTLVTVSSGGGGSGGRASGGGGSDIQMTQSPSSLSASVGDRVTITCRASQGISSALAWYQQKPGKAPKLLIYDASSLESGVPSRFSGSGSGTDFTLTISSLQPEDFATYYCQQFNSYPLTFGGGTKVEIK[human IgG4 Fc with S228P L235E R409K (EU numbers) omitted]

Each binder was assayed against extracellular domain protein of mouse MOG to which GST is added at the C-terminus (mMOG-GST) (mouse) (assay: SPR, antibody captured, mMOG-GST analyte).
Chain of extracellular domain protein of mouse MOG to which GST is added at the C-terminus (mMOG-GST) (mouse) (chain, as listed by the source limits assumed): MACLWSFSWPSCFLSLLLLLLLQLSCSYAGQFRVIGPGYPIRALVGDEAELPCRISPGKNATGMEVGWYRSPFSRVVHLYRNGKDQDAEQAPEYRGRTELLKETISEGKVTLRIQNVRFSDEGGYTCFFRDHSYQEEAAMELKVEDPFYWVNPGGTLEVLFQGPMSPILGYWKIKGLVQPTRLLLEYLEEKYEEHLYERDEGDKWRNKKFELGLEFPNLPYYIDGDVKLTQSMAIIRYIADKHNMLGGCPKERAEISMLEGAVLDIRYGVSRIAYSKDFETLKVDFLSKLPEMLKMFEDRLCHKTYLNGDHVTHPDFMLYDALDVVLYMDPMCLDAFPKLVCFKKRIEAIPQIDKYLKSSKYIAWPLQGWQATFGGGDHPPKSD

Row | Kd | koff | kon | Binder
1 | 0.19 nM | 0.00021 s⁻¹ | 1.1e+06 M⁻¹ s⁻¹ | B1
2 | 0.52 nM | 0.00039 s⁻¹ | 760000 M⁻¹ s⁻¹ | B2
3 | 0.22 nM | 0.00023 s⁻¹ | 1.1e+06 M⁻¹ s⁻¹ | B3
4 | 3.2 nM | 0.00037 s⁻¹ | 120000 M⁻¹ s⁻¹ | B4
